From a collection of fitness landscapes (doi:10.1126/science.1257360)
The list shows a part of the results.

B1: PhoQ; a variant is named by its letters at X, in order, P23837 (parent)
chain: MKKLLRLFFPLSLRVRFLLATAAVVLVLSLAYGMVALIGYSVSFDKTTFRLLRGESNLFYTLAKWENNKLHVELPENIDKQSPTMTLIYDENGQLLWAQRDVPWLMKMIQPDWLKSNGFHEIEADVNDTSLLLSGDHSIQQQLQEVREDDDDAEMTHSVAVNVYPATSRMPKLTIVVVDTIPVELKSSYMVWSWFIYVLSANLLLVIPLLWVAAWWSLRPIEALAKEVRELEEHNRELLNPATTRELTSLVRNLNRLLKSERERYDKYRTTLTDLTHSLKTPLXXLQXXLRSLRSEKMSVSDAEPVMLEQISRISQQIGYYLHRASMRGGTLLSRELHPVAPLLDNLTSALNKVYQRKGVNISLDISPEISFVGEQNDFVEVMGNVLDNACKYCLEFVEISARQTDEHLYIVVEDDGPGIPLSKREVIFDRGQRVDTLRPGQGVGLAVAREITEQYEGKIVAGESMLGGARMEVIFGRQHSAPKDE

Variants of: B1
Assay: enrichment ratio after two sorts for PhoP signalling (ratio (wild type AVST 3.29)); higher = more functional
Settings: with PhoP (E. coli)

Variant	enrichment ratio
VYTI	≤ 0.25
ICIK	≤ 0.25
KERY	≤ 0.25
PKQF	≤ 0.25
DVRN	≤ 0.25
SCGL	13.6
SYDM	≤ 0.25
VIYK	≤ 0.25
LVTF	≤ 0.25
EVNA	≤ 0.25
LQPW	≤ 0.25
FGLR	≤ 0.25
LHWI	≤ 0.25
KRYH	≤ 0.25
DVCF	≤ 0.25
PNAS	≤ 0.25
ITHK	≤ 0.25
SILY	≤ 0.25
GLGW	≤ 0.25
GWID	≤ 0.25
HVGV	≤ 0.25
GPEY	≤ 0.25
FQCH	≤ 0.25
YDLK	≤ 0.25

Variant	enrichment ratio
HPNV	≤ 0.25
SGNC	≤ 0.25
VYFF	≤ 0.25
HRLY	≤ 0.25
AVIP	≤ 0.25
YPPE	≤ 0.25
FTMG	4.46
YDYL	≤ 0.25
LSDR	≤ 0.25
VCKF	≤ 0.25
EEDR	≤ 0.25
MFYI	≤ 0.25
VTAV	0.389
LYLE	≤ 0.25
NDMQ	≤ 0.25
YETC	≤ 0.25
GVGR	≤ 0.25
QMLD	≤ 0.25
TLRK	≤ 0.25
TNKA	2.74
YELV	10.2
PLQM	≤ 0.25
DFDS	≤ 0.25
EQSL	≤ 0.25

Variant	enrichment ratio
WQDF	≤ 0.25
DTTI	≤ 0.25
LIIV	≤ 0.25
EKIQ	≤ 0.25
TLCA	7.2
TCTM	21.1
RWCP	≤ 0.25
PGFR	≤ 0.25
FEGD	≤ 0.25
TMRW	≤ 0.25
LYGL	≤ 0.25
GDSN	≤ 0.25
NNPE	≤ 0.25
AQMD	≤ 0.25
RQTG	≤ 0.25
HMTD	≤ 0.25
PAAT	≤ 0.25
LNCR	≤ 0.25
PCSW	≤ 0.25
HQKS	≤ 0.25
QPLE	≤ 0.25
PISR	≤ 0.25
NETV	8.86
MRTD	≤ 0.25

Variant	enrichment ratio
LKAQ	≤ 0.25
WFCH	≤ 0.25
TKFR	≤ 0.25
FQNA	≤ 0.25
SNTF	12.1
EAPM	≤ 0.25
QIRV	≤ 0.25
PQSY	≤ 0.25
GSHE	≤ 0.25
KFPW	≤ 0.25
FEGM	≤ 0.25
GLQV	≤ 0.25
RMWE	≤ 0.25
ARAG	≤ 0.25
LTGH	≤ 0.25
QVHK	≤ 0.25
QWLM	≤ 0.25
PCFV	≤ 0.25
QMII	≤ 0.25
LYIE	≤ 0.25
RYNF	≤ 0.25
YMTA	0.317
WLVK	≤ 0.25
NIGP	≤ 0.25

Variant	enrichment ratio
YKVF	≤ 0.25
WSFS	≤ 0.25
SHTP	≤ 0.25
DAYN	≤ 0.25
LPPT	≤ 0.25
GNCT	10.8
HCER	≤ 0.25
VEHS	≤ 0.25
MDVA	≤ 0.25
MKYW	≤ 0.25
RLNT	≤ 0.25
QQNA	4.98
EAPF	≤ 0.25
SAPD	≤ 0.25
ASYK	≤ 0.25
EERM	≤ 0.25
AKEG	≤ 0.25
GSSY	≤ 0.25
SCNM	10.2
VHLM	≤ 0.25
ECFS	≤ 0.25
HDWG	≤ 0.25
AFVL	≤ 0.25
WWSS	≤ 0.25

Variant	enrichment ratio
LKRP	≤ 0.25
VSCD	≤ 0.25
IIPA	≤ 0.25
TGNI	4.8
RAHR	≤ 0.25
LRCR	≤ 0.25
LRAL	≤ 0.25
KWPP	≤ 0.25
WMWG	≤ 0.25
MVDI	≤ 0.25
STFV	≤ 0.25
TLFR	≤ 0.25
IVKF	0.272
DMAW	≤ 0.25
FHWG	≤ 0.25
LDTI	≤ 0.25
SCNL	0.751
ITCL	≤ 0.25
RCRI	≤ 0.25
RFSI	≤ 0.25
YSFS	0.335
RHVQ	≤ 0.25
MHVL	≤ 0.25
SQAC	13.4

Variant	enrichment ratio
YWWK	≤ 0.25
QHVY	≤ 0.25
DHFQ	≤ 0.25
PEKT	≤ 0.25
TTIW	≤ 0.25
LVPE	≤ 0.25
NGDY	≤ 0.25
SDSF	≤ 0.25
FRLD	≤ 0.25
DWDL	≤ 0.25
DHKT	≤ 0.25
TICY	≤ 0.25
HSKS	≤ 0.25
EQYA	≤ 0.25
LECH	≤ 0.25
PVYT	≤ 0.25
KLGI	≤ 0.25
SIHN	0.483
IARS	≤ 0.25
HYTP	≤ 0.25
KADY	≤ 0.25
MYWT	≤ 0.25
YFAM	≤ 0.25
PGKF	≤ 0.25

Variant	enrichment ratio
RGFG	≤ 0.25
KEKP	≤ 0.25
PKFD	≤ 0.25
KGTL	≤ 0.25
FWAM	≤ 0.25
AFLQ	3.65
KHQV	≤ 0.25
QHYR	≤ 0.25
NRHD	≤ 0.25
SQIN	12.8
KLGN	≤ 0.25
VMPW	≤ 0.25
HGIC	≤ 0.25
NQRC	≤ 0.25
RHWG	≤ 0.25
YSIH	≤ 0.25
SSKG	0.383
RFVM	≤ 0.25
GHRI	≤ 0.25
TFDG	≤ 0.25
YMQF	≤ 0.25
NDYI	≤ 0.25
YTVD	≤ 0.25
ACPH	≤ 0.25

Variant	enrichment ratio
GQYI	≤ 0.25
SDNE	≤ 0.25
TDGG	≤ 0.25
LGGP	≤ 0.25
GPRN	≤ 0.25
MDIR	≤ 0.25
IWYI	≤ 0.25
PFNY	≤ 0.25
DFFQ	≤ 0.25
DHMD	≤ 0.25
QPRN	≤ 0.25
SVTI	12
GSLI	15.5
MVSS	≤ 0.25
FMHR	≤ 0.25
LPLE	≤ 0.25
KAIY	≤ 0.25
GSFP	≤ 0.25
SGEH	≤ 0.25
TMMK	≤ 0.25
VRMK	≤ 0.25
ISYF	≤ 0.25
FLAD	≤ 0.25
HWRQ	≤ 0.25

Variant	enrichment ratio
FNRN	≤ 0.25
HAYV	≤ 0.25
GHSE	≤ 0.25
QEVM	≤ 0.25
YWCL	≤ 0.25
GRCH	≤ 0.25
TEKR	≤ 0.25
PFPD	≤ 0.25
TFGH	≤ 0.25
YSSM	0.616
MMFC	≤ 0.25
RQQV	≤ 0.25
MTMV	0.621
ARDW	≤ 0.25
MYDI	≤ 0.25
YKGI	≤ 0.25
FMGV	≤ 0.25
LPTE	≤ 0.25
DGSC	≤ 0.25
RNTP	≤ 0.25
FGSG	≤ 0.25
NRDF	≤ 0.25
TWTC	≤ 0.25
LMVW	≤ 0.25

Variant	enrichment ratio
WNAC	≤ 0.25
ELYP	≤ 0.25
ECNL	≤ 0.25
MHWN	≤ 0.25
IDMD	≤ 0.25
YRSL	≤ 0.25
IRLE	≤ 0.25
RCPH	≤ 0.25
IQDY	≤ 0.25
DHDR	≤ 0.25
FIEY	≤ 0.25
YEKT	≤ 0.25
FGNQ	≤ 0.25
HIKP	≤ 0.25
SLWQ	≤ 0.25
FWAN	≤ 0.25
DMAL	≤ 0.25
KMFE	≤ 0.25
FGFG	≤ 0.25
SFGN	≤ 0.25
TVDS	≤ 0.25
RHHS	≤ 0.25
ATIC	6.58
WRQY	0.703

Variant	enrichment ratio
LQGR	≤ 0.25
TKFE	≤ 0.25
DNIP	≤ 0.25
RKEH	≤ 0.25
SWRQ	≤ 0.25
VFYG	≤ 0.25
MEWL	≤ 0.25
TMAK	16.1
YVCS	0.325
MYMF	≤ 0.25
NWFQ	≤ 0.25
AEIA	15.4
YWTI	≤ 0.25
THKW	≤ 0.25
RASF	≤ 0.25
DKRG	≤ 0.25
EAPV	≤ 0.25
NYEY	≤ 0.25
FWWL	≤ 0.25
QKPQ	≤ 0.25
PAWP	≤ 0.25
RVCD	≤ 0.25
TIDW	≤ 0.25
DEIF	≤ 0.25

Variant	enrichment ratio
HGWI	≤ 0.25
CIAC	≤ 0.25
QTPT	≤ 0.25
RFQD	≤ 0.25
LMMQ	≤ 0.25
YCQG	≤ 0.25
VKWF	≤ 0.25
NAFH	≤ 0.25
SSPD	≤ 0.25
TAWN	≤ 0.25
VNKK	≤ 0.25
KGQF	≤ 0.25
WQFV	≤ 0.25
ALKI	≤ 0.25
QNLL	≤ 0.25
IVAG	≤ 0.25
WDGA	≤ 0.25
AWRI	≤ 0.25
